PubChem BioAssay AID651820 (National Center for Advancing Translational Sciences (NCATS), 2012)
Hit rate of the full screen: of about 340,000 compounds, about 12,000 (3.5%) were called active. The inconclusive results got no clear call from the source; some entries with a clear call stand among them for comparison. The call rests on the fitted dose curve; in most records, active means well fitted inhibition curve with a large enough effect; inconclusive means small, poorly fitted or top-dose-only effect, or another doubt; inactive means no such curve, though single readings can be large or run the other way. No potency is given beside an inconclusive call; the fits are too rough.

assay: qHTS Assay for Inhibitors of Hepatitis C Virus (HCV); details: Huh7.5.1 HCVcc-Cre (HCVcc is cell-culture hepatitis C virus) infection, luciferase reporter, 44 h; series mostly up to 41.8 µM
Outline: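 1,000 cells/well; 4 h culture; + compound; + HCVcc-Cre (~0.5 moi); 44 h; luciferase substrate, RT 15 min; read 15 sec.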
Potency means the concentration at half of the fitted maximal effect; tags describe the fitted curve by direction and shape.

| Compound | Potency |
| --- | --- |
| c1ccc2c(c1)CSc1sccc1C2=C1CCNCC1 | active: 15.8 µM |
| CC12CCC(=O)N1C(C(=O)N1CCN(S(=O)(=O)c3ccc(Br)cc3Cl)CC1)CS2 (centres undefined) | inconclusive [inhibitor, single point] |
| O=C(CNC(=O)C1CCCCC1)NCc1ccco1 | inactive |
| CCOc1ccc(/C=N/OC(C)C(=O)NCc2ccc3c(c2)OCO3)cc1 (centres undefined) | inconclusive [inhibitor, single point] |
| COC(=O)C1=C(CN2CCc3ccccc32)NC(=O)NC1c1cc(C)ccc1C (centres undefined) | inconclusive [inhibitor, single point] |
| COc1cccc(C2C(C(=O)Nc3cccnc3)=C(C)Nc3nnnn32)c1OC (centres undefined) | inactive |
| CCOC(=O)c1ccc2c(c1)n(CC)c(C)[n+]2CC | inconclusive [inhibitor, partial curve, poor fit] |
| CCCNC(=O)c1ccc(N2CCC3(CC2)CC(c2cccc(Br)c2)=NO3)c(NC(=O)c2ccco2)c1 | inconclusive [inhibitor, partial curve] |
| Cc1ccc2c(c1)-c1c(cnn1CC(=O)NC(C)CCc1ccco1)CO2 (centres undefined) | inconclusive [inhibitor, single point] |
| CC(C)(C)c1ccc(-n2ncc3c2CCCC3NC(=O)CCCn2cncn2)cc1 (centres undefined) | inconclusive [inhibitor, partial curve] |
| O=C(NC1CCSc2ccccc21)c1ccccc1F (centres undefined) | inactive |
| O=C(CSc1nnc(-c2ccc(OC(F)F)cc2)o1)N1CCOCC1 | inconclusive [inhibitor, partial curve, poor fit] |
| CCCc1ccc(C(=O)NC(=O)c2ccccc2O)cc1 | inconclusive [inhibitor, single point] |
| Cc1ccc(Cn2nnc3c(=O)[nH]c(C4CCN(S(=O)(=O)c5cc(C)ccc5C)CC4)nc32)cc1 | inconclusive [inhibitor, single point] |
| Cc1cccc(NC(=S)N/N=C/c2ccc(Cl)c([N+](=O)[O-])c2)c1 | inconclusive [inhibitor, partial curve] |
| CCC(C)(C)NC(=O)C(c1cccn1C)N(C(=O)Cn1nnc2ccccc21)c1ccc(OC)cc1OC (centres undefined) | inactive |
| CCc1c(C)nc2ncnn2c1NCCc1ccc(Cl)cc1 | inconclusive [inhibitor, partial curve] |
| COc1cc2oc3ccc(C#Cc4ccc(N)cc4)cc3c(=O)c2cc1OC | active: 12.6 µM |
| COC(=O)/C=c1/sc2n(c1=O)CCN=2 | inactive |
